Laboratory results from the supplement of paper PMC12067230.
This is a noisy data set.

Test: amyloid nucleation score relative to library mode (yeast Sup35 reporter selection) (log enrichment difference); higher = more amyloid nucleation; sequences are the first 22 residues of the Bri2 peptide extended by up to 12 random residues
Details: random library (experiment): 1;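 active = nucleation score significantly above 0 at FDR 0.05; inactive = not significantly above 0 or absent from output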
Description: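 Random C-terminal extensions of the 22-aa Bri2 peptide by 12 NNK codons; premature stops give shorter extensions. Peptides were fused to the Sup35 nucleation domain in S. cerevisiae [psi-pin-] and selected on -ADE-URA plates for 7 d at 30 °C. The nucleation score is log(output/input), centred to the mode of each of 3 independent libraries (1 input, 3 technical output replicates), with duplicates merged. Sequences absent from the output ('random_non_nuc') were imputed with the library mode value, so they are given as censored (<). Nucleators are scores significantly >0 at FDR 0.05.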
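Note: [psi-pin-] Saccharomyces cerevisiae expressing SupN fusions, induced by 100 µM Cu2SO4, selected 7 d at 30 °C without adenine and uracil, scored by deep sequencing of output versus input.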

Row | Sequence | amyloid nucleation score
1 | EASNCFAIRHFENKFAVETLICYLGCTELGAGRW | 5.48
2 | EASNCFAIRHFENKFAVETLICFEVKWRELDRTK | -0.585
3 | EASNCFAIRHFENKFAVETLICCYHSCGFSTWLA | inactive
4 | EASNCFAIRHFENKFAVETLICQSRHRKTGLNVT | inactive
5 | EASNCFAIRHFENKFAVETLICESSWF | inactive
6 | EASNCFAIRHFENKFAVETLICRSLLVSRFLSRI | inactive
7 | EASNCFAIRHFENKFAVETLICDLEKGHISRTCS | inactive
8 | EASNCFAIRHFENKFAVETLICALRCWRYTGGMV | inactive
9 | EASNCFAIRHFENKFAVETLICMSVEVPVRTPPW | 2.8
10 | EASNCFAIRHFENKFAVETLICIDRQGLIDGNPQ | 0.944
11 | EASNCFAIRHFENKFAVETLICLGKNTQTERYST | 0.307
12 | EASNCFAIRHFENKFAVETLICGNSQYLLSYLVM | inactive
13 | EASNCFAIRHFENKFAVETLICFTDCYHALIRP | inactive
14 | EASNCFAIRHFENKFAVETLICTS | inactive
15 | EASNCFAIRHFENKFAVETLICLMCET | inactive
16 | EASNCFAIRHFENKFAVETLICDME | inactive
17 | EASNCFAIRHFENKFAVETLICLDQRADYLPFK | 3.01
18 | EASNCFAIRHFENKFAVETLICLRLVPKLLTIGL | 2.82
19 | EASNCFAIRHFENKFAVETLICMSVERVGESAWD | inactive
20 | EASNCFAIRHFENKFAVETLICLINWDDRLFRQ | 7.56
21 | EASNCFAIRHFENKFAVETLICWNKRRRNHRFMG | inactive
22 | EASNCFAIRHFENKFAVETLICLKSMGA | -0.557

Row | Sequence | amyloid nucleation score
23 | EASNCFAIRHFENKFAVETLICGHSYTSYKIYAV | inactive
24 | EASNCFAIRHFENKFAVETLICPVGKARIPVFAV | inactive
25 | EASNCFAIRHFENKFAVETLICWSRGSRVSACFD | -0.111
26 | EASNCFAIRHFENKFAVETLICQCCSVDGRTCCW | 8.6
27 | EASNCFAIRHFENKFAVETLICNLRYKWCGGIWM | inactive
28 | EASNCFAIRHFENKFAVETLICFMRHHTWQVQAY | inactive
29 | EASNCFAIRHFENKFAVETLICYSYFRYVAISCV | inactive
30 | EASNCFAIRHFENKFAVETLICVMMLFFV | -0.187
31 | EASNCFAIRHFENKFAVETLICCSDVGVVFVADK | 8.58
32 | EASNCFAIRHFENKFAVETLICRPRFWEVFLAVS | inactive
33 | EASNCFAIRHFENKFAVETLICRVFESIMHHGLS | inactive
34 | EASNCFAIRHFENKFAVETLICYKVNFVPREILC | 0.627
35 | EASNCFAIRHFENKFAVETLICLWKRHPFCPSFY | inactive
36 | EASNCFAIRHFENKFAVETLICALEESSFSWAYS | inactive
37 | EASNCFAIRHFENKFAVETLICPRSIRTSGWDVV | 0.341
38 | EASNCFAIRHFENKFAVETLICLCCVETS | 6.43
39 | EASNCFAIRHFENKFAVETLICPLSNVEMLIRRL | inactive
40 | EASNCFAIRHFENKFAVETLICRRRVESRQAW | -0.579
41 | EASNCFAIRHFENKFAVETLICRIYVLVVNIRGE | inactive
42 | EASNCFAIRHFENKFAVETLICVKNVQMGANVTQ | 3.62
43 | EASNCFAIRHFENKFAVETLICVKMKCSLMEDGG | inactive

Same assay, conditions: random library (experiment): 2

Row | Sequence | amyloid nucleation score
44 | EASNCFAIRHFENKFAVETLICCSDL | 8
45 | EASNCFAIRHFENKFAVETLICFIFNTHRFLACG | inactive
46 | EASNCFAIRHFENKFAVETLICTVM | 8.75
47 | EASNCFAIRHFENKFAVETLICLISSYFWNRFRS | inactive
48 | EASNCFAIRHFENKFAVETLICIKLSGMLRVYVG | inactive
49 | EASNCFAIRHFENKFAVETLICHTAFMVCLRYMS | inactive
50 | EASNCFAIRHFENKFAVETLICWWNTKLVSCCRL | inactive
51 | EASNCFAIRHFENKFAVETLICYAAIQRRCILGR | inactive
52 | EASNCFAIRHFENKFAVETLICFGECSVTLNYGW | 9.13
53 | EASNCFAIRHFENKFAVETLICCMWDKSHLFRVF | 3.99
54 | EASNCFAIRHFENKFAVETLICMNVGVCIRIILY | inactive
55 | EASNCFAIRHFENKFAVETLICNSNKYCEFLRIG | inactive
56 | EASNCFAIRHFENKFAVETLICGIWPSGDSMS | 8.19
57 | EASNCFAIRHFENKFAVETLICMSTDCACVGTMG | 6.45
58 | EASNCFAIRHFENKFAVETLICVLFLFGEASKTI | inactive
59 | EASNCFAIRHFENKFAVETLICVCVYRQIFSSRT | 5
60 | EASNCFAIRHFENKFAVETLICLARHLVQIHYVV | inactive
61 | EASNCFAIRHFENKFAVETLICGRSSTFVVPKRN | inactive
62 | EASNCFAIRHFENKFAVETLICTFSSIFFNSLLV | 6.26
63 | EASNCFAIRHFENKFAVETLICTWRISG | -0.14
64 | EASNCFAIRHFENKFAVETLICGFGFWWCWSRLC | 3.04
65 | EASNCFAIRHFENKFAVETLICMGCLCCCRFSWK | 8.76

Row | Sequence | amyloid nucleation score
66 | EASNCFAIRHFENKFAVETLICLEYTCWGFMRDK | inactive
67 | EASNCFAIRHFENKFAVETLICEIMMGFTILTLE | inactive
68 | EASNCFAIRHFENKFAVETLICLLSLFCWTEFVY | -0.548
69 | EASNCFAIRHFENKFAVETLICIRVSMCLCWLRG | 5.67
70 | EASNCFAIRHFENKFAVETLICLYFRFCSVRSNS | inactive
71 | EASNCFAIRHFENKFAVETLICFGMVFI | 7.54
72 | EASNCFAIRHFENKFAVETLICICENHSYARDSG | 7.01
73 | EASNCFAIRHFENKFAVETLICWMF | 6.55
74 | EASNCFAIRHFENKFAVETLICGCELRSSQMNSW | inactive
75 | EASNCFAIRHFENKFAVETLICCLRRMWYRSRGC | inactive
76 | EASNCFAIRHFENKFAVETLICLGRNSTVVVVFL | inactive
77 | EASNCFAIRHFENKFAVETLICNGRMMCRDKPRT | inactive
78 | EASNCFAIRHFENKFAVETLICMAIYYNSRKLSR | inactive
79 | EASNCFAIRHFENKFAVETLICAFIETSHVGYVL | inactive
80 | EASNCFAIRHFENKFAVETLICKMLHFGVFISLV | inactive
81 | EASNCFAIRHFENKFAVETLICVMDDNWKGNCPC | 7.58
82 | EASNCFAIRHFENKFAVETLICTCMVVRFSCPDV | inactive
83 | EASNCFAIRHFENKFAVETLICGQSLRHVIIILR | -0.0583
84 | EASNCFAIRHFENKFAVETLICCLMQYAMSSRLR | 5.36
85 | EASNCFAIRHFENKFAVETLICVYCMGVNRYTSV | inactive
86 | EASNCFAIRHFENKFAVETLICVILFRNGTELFV | 0.799

Same assay, conditions: random library (experiment): 3

Row | Sequence | amyloid nucleation score
87 | EASNCFAIRHFENKFAVETLICGNVCGNRSGGPR | 3.21
88 | EASNCFAIRHFENKFAVETLICAMWG | 2.64
89 | EASNCFAIRHFENKFAVETLICYSGRELS | 1.39
90 | EASNCFAIRHFENKFAVETLICCARMPNIGGSGC | 6.16
91 | EASNCFAIRHFENKFAVETLICFVAVRKACCA | inactive
92 | EASNCFAIRHFENKFAVETLICVNG | inactive
93 | EASNCFAIRHFENKFAVETLICLFRCKMLSSV | inactive
94 | EASNCFAIRHFENKFAVETLICFEAPNRTSYVRL | 3.89
95 | EASNCFAIRHFENKFAVETLICGKVDGRSKAASG | inactive
96 | EASNCFAIRHFENKFAVETLICGLEREQSLTKRR | 1.13
97 | EASNCFAIRHFENKFAVETLICYEQFCI | inactive
98 | EASNCFAIRHFENKFAVETLICVGARSAYYSWLG | 4.92
99 | EASNCFAIRHFENKFAVETLICDLNGWPSSVSPE | inactive
100 | EASNCFAIRHFENKFAVETLICVSASISPFVVIR | inactive
101 | EASNCFAIRHFENKFAVETLICVDGYVVLAVSSV | 3.99
102 | EASNCFAIRHFENKFAVETLICLSLFCYCLCGAS | 2.73
103 | EASNCFAIRHFENKFAVETLICVWYQCQERWGKG | inactive
104 | EASNCFAIRHFENKFAVETLICVSHCNVSGGIMW | 6.8
105 | EASNCFAIRHFENKFAVETLICWTAGPWALGSGW | inactive
106 | EASNCFAIRHFENKFAVETLICWYE | 3.84
107 | EASNCFAIRHFENKFAVETLICDLFCKGLPVETR | inactive
108 | EASNCFAIRHFENKFAVETLICCFEVRDPAGYAP | 7.64
109 | EASNCFAIRHFENKFAVETLICLCPFGIDRERVG | 8.81
110 | EASNCFAIRHFENKFAVETLICPTMRIGRRAVT | inactive
111 | EASNCFAIRHFENKFAVETLICLSCNMTEGMFVM | 6.72
112 | EASNCFAIRHFENKFAVETLICGATSFAVLCGLE | 1.45
113 | EASNCFAIRHFENKFAVETLICLAKWFA | inactive
114 | EASNCFAIRHFENKFAVETLICNKYALHLFLSQV | inactive
115 | EASNCFAIRHFENKFAVETLICLLWYWCTIDVVA | inactive
